Data: publication PMC6919601, “Identification of Plasmodium dipeptidyl aminopeptidase allosteric inhibitors by high throughput screening” (PLoS ONE, 2019)
Values joined by “and” are separate entries in the source; they are usually repeats but may differ in a detail not shown here. Equal values may be shown once. Among all 110,000 compounds or so, about 230 (0.21%) showed an effect of 50% or more. The list shows a part of the results.

Molecular target: DPAP1 (Plasmodium falciparum, UniProt Q8IIJ9)
Assay: primary screen, percent inhibition; read by cleavage of a fluorogenic dipeptide substrate; higher = more effect of the substance
Set-up: species or system P. falciparum D10 trophozoite lysates; single well
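Note: 30 min substrate incubation versus DMSO and 10 µM JCP410 controls.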

Sequence of DPAP1 (Q8IIJ9 whole entry, looked up): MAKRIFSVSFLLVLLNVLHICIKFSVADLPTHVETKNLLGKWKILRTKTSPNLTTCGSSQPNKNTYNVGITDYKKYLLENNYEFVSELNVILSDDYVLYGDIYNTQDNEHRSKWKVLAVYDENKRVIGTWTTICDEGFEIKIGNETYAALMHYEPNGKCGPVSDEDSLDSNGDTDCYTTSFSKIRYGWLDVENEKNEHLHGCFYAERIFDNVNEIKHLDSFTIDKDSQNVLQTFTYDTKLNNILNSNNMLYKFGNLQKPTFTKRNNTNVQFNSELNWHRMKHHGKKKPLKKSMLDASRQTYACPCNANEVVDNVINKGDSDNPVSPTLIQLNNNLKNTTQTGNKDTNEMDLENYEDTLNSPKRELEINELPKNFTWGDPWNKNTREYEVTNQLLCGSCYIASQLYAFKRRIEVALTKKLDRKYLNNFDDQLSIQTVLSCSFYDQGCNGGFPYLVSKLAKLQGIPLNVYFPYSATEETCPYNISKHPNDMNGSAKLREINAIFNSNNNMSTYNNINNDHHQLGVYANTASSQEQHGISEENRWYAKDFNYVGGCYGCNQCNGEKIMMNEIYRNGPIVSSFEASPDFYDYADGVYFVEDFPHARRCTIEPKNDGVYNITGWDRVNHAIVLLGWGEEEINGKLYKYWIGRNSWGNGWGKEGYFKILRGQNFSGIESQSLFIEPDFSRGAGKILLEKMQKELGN

| Structure (SMILES) | % Inhibition @ 10 uM |
| --- | --- |
| Nc1ncc(Br)cc1S(=O)(=O)NCCCN1CCN(C2CCCCC2)CC1 | -1.06% |
| COc1ccc(-c2c(C(C)=O)c(C)nc3sc4c(-n5nc(C)cc5C)nc(C)nc4c23)cc1 | -10% |
| COC(=O)C1=C(C)NC(=O)C1(NC(=O)c1ccccc1F)C(F)(F)F (centres unmarked) | 0.221% |
| CCOC(=O)c1ccccc1NS(=O)(=O)c1ccc(Br)cc1 | -0.828% |
| COC(=O)c1sccc1S(=O)(=O)N1CCC2(CC1)OCCO2 | 4.97% |
| COCCCn1c(=N)c(S(=O)(=O)c2ccc(Cl)cc2)cc2c(=O)n3cccc(C)c3nc21 | 16.1% |
| Cc1ccc2nc3c(cc(C#N)c(=O)n3Cc3ccccc3)c(=O)n2c1 | -0.551% |
| CNC(=O)C1CC(=O)N(c2ccc(C)cc2)C1 (centres unmarked) | -4.01% |
| CC(=O)N(C)c1ccc(NC(=O)c2ccccc2C(=O)O)cc1 | -7.32% |
| c1ccc(-c2ccc(Oc3cc(-n4cccn4)nc(-c4ccccc4)n3)cc2)cc1 | 3.48% |
| CN(C)c1ccc(C2C3=C(O)CC(C)(C)CC3=Nc3ccccc3N2C(=O)C2CC2)cc1 (centres unmarked) | 0.76% |
| O=S(=O)(c1ccc(Cl)s1)N1CCCC(c2ccccc2)C1 (centres unmarked) | -3.49% |
| CCCCNC(=O)c1ccc(OCC)cc1 | 4% |
| Cc1nnc(NC(=O)C(Cc2ccccc2)N2C(=O)C3C4C=CC(C4)C3C2=O)s1 (centres unmarked) | -4.07% |
| CC(C)(C)c1ccc(OCCNC(=O)C2CCCN2S(=O)(=O)c2ccc(Cl)c(Cl)c2)cc1 (centres unmarked) | -0.703% |
| COc1ccc(C2OCC3(CO2)SC(=O)NC3=O)cc1OC (centres unmarked) | -4.43% |
| COc1ccc(C2=N/C(=C\c3cccc(Br)c3)C(=O)O2)cc1 | -0.597% |
| CCCCCCc1cc2cc(-c3csc(N)n3)c(=O)oc2cc1O | 1.12% |
| Cc1c(C(=O)Nc2ccccc2F)cnn1-c1ccccc1 | -2.74% |
| C=CCc1cccc2cc(C(=O)NCCc3ccc(OCC)c(OCC)c3)c(=O)oc12 | 1.98% |
| CCCn1c2ccccc2c2cnn(CC(=O)Nc3ccc(Cl)cn3)c(=O)c21 | 8.44% |
| Cc1ccc(NC(=O)C2=Cc3sc4c(c3CS2)CCC(C)C4)nc1 (centres unmarked) | 0.942% |
| CCOc1cc(C2C(C#N)=C(N)Oc3c2c(-c2ccccc2)nn3C)cc(Br)c1O (centres unmarked) | 1.57% |
| COc1ccccc1N(CC(=O)N1CCCC1)S(=O)(=O)c1ccccc1 | -11.7% |
| Cc1ccc(CSCC2COC(c3cccs3)=N2)cc1 (centres unmarked) | -7.73% |
| Cc1c(C(=O)N2CCN(C(=O)c3ccccc3)CC2)c(-c2ccccc2)nn1-c1ccccc1 | -2.87% and -0.884% |

| Structure (SMILES) | % Inhibition @ 10 uM |
| --- | --- |
| CCc1ccc(-c2nc(CS(=O)CC(=O)NCCCN3CCC(C)CC3)c(C)o2)cc1 (centres unmarked) | 0.718% |
| CCN(CC)CCN(CC)CCC(C)c1ccccc1 (centres unmarked) | 2.1% |
| COc1ccc(/C=c2\sc3nc(-c4cccc(C)c4)nn3c2=O)c(OC)c1 | 5.44% |
| CNc1nc(Nc2ccccc2C(=O)c2ccccc2)nc(OC(C(F)(F)F)C(F)(F)F)n1 | -4.01% |
| COc1ccc(CNc2nc(N)n(-c3ccccc3)n2)cc1 | 0.778% |
| CN(C)CCCN(CCCN(C)C)Cc1c(F)cccc1Cl | 1.62% |
| Cc1ccc(-n2ncc3c(NCC4CCCO4)ncnc32)cc1 (centres unmarked) | 1.26% |
| Cc1nc2ccc(S(=O)(=O)NC(C(=O)N3CC(C)CC(C)C3)C(C)C)cc2s1 (centres unmarked) | 3.2% |
| Cc1ccc2nc3c(O)n(CC(=O)N4CCN(c5ncccn5)CC4)ncc-3c2c1 | 3.1% |
| Brc1ccc(C2CC(c3ccco3)n3ncnc3N2)cc1 (centres unmarked) | 0.83% |
| Cc1cccc(-n2c(C)nc3cc(C(=O)NC4CCCC4)ccc32)c1 | -3.78% |
| Cc1ccc(-c2c(CN3CCC4(CC3)OCCO4)csc2C)cc1 | -7.62% |
| CC(C(=O)N1CCN(C)CC1)N(c1ccccc1)S(C)(=O)=O (centres unmarked) | -4.31% |
| COC(=O)c1cc(Cl)nc2ccccc12 | 3.04% |
| Cc1cc(C)c(S(=O)(=O)NCCOc2ccccc2)c(C)c1-n1cnnn1 | 0.9% |
| O=C(NCCO)C1c2ccccc2Sc2ccccc21 | -2.81% |
| c1coc([C@H]2Nc3ccccc3[C@H]3OCC[C@@H]23)c1 | 2.84% |
| CCN(CC)C(=O)C1CCN(S(=O)(=O)c2cccc3c2C(=O)c2ccccc2C3=O)CC1 | -0.403% |
| O=S(=O)(c1ccc(N2CCN(CCO)CC2)nc1)N1CCCCC1 | -1.51% |
| CCN(CC)CCCNCc1cccc(C)c1 | -3.12% |
| CN1C(=O)/C(=C/c2cc(Br)ccc2O)S/C1=N/c1cccc(C(=O)O)c1 | 2.44% |
| CNC(=O)CCCCCNS(=O)(=O)c1ccc(C)cc1 | 3.62% |
| CCOc1ccccc1C(=O)Nc1cccnc1 | 1.86% |
| Cc1ccccc1/C=C1/C(=N)N2N=C(C(C)C)SC2=NC1=O | -6.69% |
| CCOc1ccc(Cn2c(=O)oc3ccc(C)cc32)cc1OC | -4.41% |
| CC1CCCCC1NC(=O)C1CCN(c2nnc(N3CCCC3=O)s2)CC1 (centres unmarked) | 0.623% |

| Structure (SMILES) | % Inhibition @ 10 uM |
| --- | --- |
| CCOc1cc(C2C=C(c3ccc(F)cc3)Nc3nnnn32)ccc1OC(F)F (centres unmarked) | -5.19% |
| CCCCCOc1ccc(C2c3c(oc4ccccc4c3=O)C(=O)N2c2nnc(C)s2)cc1OC (centres unmarked) | 11% |
| CCC1=NN2C(=N)/C(=C\c3cccn3-c3cc(C)ccc3OC)C(=O)N=C2S1 | -3.35% |
| CCN(CC)c1ccc(NC(=O)NC2CCCCC2)cc1 | -1.61% |
| CCc1ccc(Oc2nc3ccccn3c(=O)c2/C=C(\C#N)C(=O)NCc2ccco2)cc1 | 0.0628% |
| CCOc1ccc(N2C(=O)CC(N3CCN(c4ccccc4F)CC3)C2=O)cc1 (centres unmarked) | 1.92% |
| CN(Cc1ccccc1)c1ncnc2c(-c3ccc(F)cc3)nsc12 | -2.71% |
| COc1ccc(NC(=O)CSc2nc3ccccc3s2)cc1OC | -1.37% |
| COCCCNC(=O)c1cc2oc3ccccc3c2n1C | 1.22% |
| CC(C)CC(NC(=O)c1ccncc1)C(=O)NCC#N (centres unmarked) | 0.556% |
| Cc1ccc(F)c(NC(=O)NC2CCCCC2)c1 | 6.08% |
| O=C(Nc1c(Cl)cccc1Cl)c1ccc2c(c1)OCO2 | 0.727% |
| COc1ccc(NC(=O)CCC(=O)c2ccc(F)cc2)cc1 | -0.872% |
| CCc1nc2c(=O)n(C)c(=O)n(C)c2[nH]1 | -2.66% |
| COc1ccc(-c2[nH]nc(C)c2-c2cnn(-c3ccccc3)c2)c(O)c1 | 4.35% |
| COc1ccc(C(=O)Nc2ccc(S(=O)(=O)Nc3ncccn3)cc2)c(OC)c1 | -3.09% |
| Cn1ncc(C#N)c1N | 0.708% |
| Cc1ccc(CNC(=O)C(NS(=O)(=O)c2ccc(Br)s2)c2ccccc2)cc1 (centres unmarked) | -0.668% |
| COc1ccc(/C(O)=C/C=N/c2ccc(Br)cc2Cl)cc1OC | -6.51% |
| COc1cccc(OC)c1C(=O)NCC1CCCO1 (centres unmarked) | 0.634% |
| CCOc1ccc(/C=C(\C#N)c2nc(-c3ccc(OCC)cc3)cs2)cc1 | 2.13% |
| CC1=C(C(=O)NCCN2CCN(C)CC2)C2(CCC(C)CC2)OC1=O (centres unmarked) | 1.55% |
| COc1cc(/C=N\n2cnnc2)ccc1OCc1ccccc1 | 7.62% |
| Cc1ccc(OCC(O)CN2CCN(c3ccccc3)CC2)cc1 (centres unmarked) | 3.72% |
| COCCNC(=O)CN1C(=O)CSc2nc(C)cc(C)c21 | 5.73% |
| Cc1[nH]c2ccccc2c1C(c1ccc(N(C)C)cc1)c1c(C)[nH]c2ccccc12 | 0.565% |

| Structure (SMILES) | % Inhibition @ 10 uM |
| --- | --- |
| CC1SC(NC(=O)COc2ccccc2)=NC1=O (centres unmarked) | 0.222% |
| CCc1ccccc1S(=O)(=O)Cc1ccc(C(=O)N2CCN(c3ccccn3)CC2)o1 | 0.458% |
| CCOc1cc2c(cc1OCC)C1C(C(=O)NC3CCCCC3)c3ccccc3C(=O)N1CC2 (centres unmarked) | -6.58% |
| CC/N=C(/Nc1cc(-c2ccccc2)[nH]n1)SC | -0.551% |
| N=C(NOC(=O)/C=C/c1ccccc1)c1ccncc1 | -1.55% |
| N=c1n(CCOc2ccccc2)c2ccccc2n1CCN1CCOCC1 | -6.25% |
| Cc1ccc2nc(NC(=O)Cc3csc(C)n3)sc2c1 | -2.71% |
| CC(C)(C)C1CCC(OC(=O)CCC(=O)Nc2ccccc2)CC1 (centres unmarked) | 3.16% |
| COc1cc(Cn2c(=O)oc3ccc(C)cc32)ccc1OC(C)C | 4.09% |
| CCCNC(=O)CCn1nc(C)c2c(C)n(-c3ccccc3)nc2c1=O | -6.75% |
| CC1=NN2CC(c3ccccc3)=NN=C2NC1=O | -3.23% |
| O=C(NCc1noc2ccccc12)N1CCN(C2CCCCC2)CC1 | -4.95% |
| CN(Cc1ccco1)C(=O)CCNS(=O)(=O)c1ccc2nc(O)ccc2c1 | -8.7% |
| Cn1ncc(Cl)c1C(=O)NCc1cc2cc(Cl)ccc2[nH]1 | -4.28% |
| CCCc1nn(-c2ccc(F)cc2)c(O)c1/C=N/CCN1CCOCC1 | -0.99% |
| Cc1ccc(C2C(C#N)=C(N)SC(N)=C2C#N)c(C)c1 | 27.4% |
| CSc1nc2c(c(=O)[nH]c(=O)n2C)n1Cc1ccc(C)cc1 | 4.09% |
| CC(=O)NC1=NC(=O)/C(=C/c2cccc(F)c2)S1 | -5.92% |
| O=C(CN(c1ccccc1Cl)S(=O)(=O)c1ccccc1)NC1CC2CCC1C2 (centres unmarked) | -1.71% |
| CCOC(=O)N1CCN(C/C(Cl)=C/c2ccccc2)CC1 | -2.34% |
| Oc1nnnc2c1sc1nc(-c3ccccc3)cc(-c3ccccc3)c12 | -0.808% |
| O=C(Cn1c(-c2cccs2)cc2ccccc21)NCc1ccco1 | -1.6% |
| COc1ccc2c(c1)c(C(=O)N1CCN(C)CC1)c(C)n2C | 5.65% |
